This note sets out measurements from patent US4117136A, “Systemic antimicrobial quinolines for plant disease” (Sumitomo Chemical Company, Ltd., priority 1976, dated 1978).

The structures appear in SMILES notation. Structures can show the parent of a compound that is named as a salt. Where two headings read alike, the source gives them in different places.

Test [1] concerns Soft Rot of Chinese Cabbage Caused by E. carotovora. It counts as in vivo, Erwinia carotovora (on Chinese cabbage). To be noted: for Severity of Disease: sprayed at 500 ppm 16 hours after inoculation; for effectiveness in preventing and eradicating soft rot disease of Chinese cabbage: result in words, E. carotovora.
The subject of test [2] is Soft Rot of Chinese Cabbage Caused by E. aroideae. In kind it is in vivo. Conditions: for Severity of Disease: spray, 3 days before inoculation; for effect for preventing the occurrence of soft rot disease of Chinese cabbage: result in words, Erwinia aroideae, Table 2. An excerpt:
[…] Two flower pots with two plants in each were used for each treatment.

Regarding `CCn1cc(C(=O)O)c(=O)c2cc3c(cc21)OCO3` [Compound (1)], the “Severity of Disease” value was 0 in test [1], 0% in test [2] (100 ppm active ingredient) and 0% in test [2] (500 ppm active ingredient).

Consider `O=C(O)c1cn(CCO)c2cc3c(cc2c1=O)OCO3` [(5)], for which the “Severity of Disease” value amounted to 14% in test [2] (100 ppm active ingredient) and 0% in test [2] (500 ppm active ingredient).

In the case of `[H]/N=C(/N)N[C@H]1[C@H](O)[C@@H](O)[C@H](O[C@@H]2O[C@@H](C)[C@](O)(C=O)[C@H]2O[C@@H]2O[C@@H](CO)[C@H](O)[C@@H](O)[C@@H]2NC)[C@@H](N/C(N)=N\[H])[C@@H]1O` [Streptomycin Sulfate, reference compound], in test [2] (200 ppm active ingredient), the “Severity of Disease” value worked out at 14%.

In the case of `CCn1cc(C(=O)OC)c(=O)c2cc3c(cc21)OCO3` [(2)], the “effectiveness in preventing and eradicating soft rot disease of Chinese cabbage” value (“effectiveness” for short) in test [1] was “highly effective”. Further, the “Severity of Disease” value was 12 in test [1], 7% in test [2] (100 ppm active ingredient) and 0% in test [2] (500 ppm active ingredient).

As to `CCOC(=O)c1cn(CCF)c2cc3c(cc2c1=O)OCO3` [(8)], the “effectiveness” value in test [1] is “highly effective”. Moreover, the entries for the “Severity of Disease” value in test [1], in test [2] (100 ppm active ingredient) and in test [2] (500 ppm active ingredient) were 8, 0% and 0%, respectively.

Take `O=C(O)c1cn(CC(F)(F)F)c2cc3c(cc2c1=O)OCO3` [(6)]: the “Severity of Disease” value is 0 in test [1], 0% in test [2] (100 ppm active ingredient) and 0% in test [2] (500 ppm active ingredient).

As to `Nc1ccc(S(N)(=O)=O)cc1` [sulfamine, reference compound], the “effect for preventing the occurrence of soft rot disease of Chinese cabbage” value (from here on “effect for preventing the occurrence”) in test [2] was “no effect”. Moreover, in test [2] (500 ppm active ingredient), the “Severity of Disease” value came to 100%.

In the case of `COn1cc(C(=O)O)c(=O)c2cc3c(cc21)OCO3` [(3)], the “Severity of Disease” value turned out to be 0 in test [1], 9% in test [2] (100 ppm active ingredient) and 0% in test [2] (500 ppm active ingredient).

With `CCn1c(C)c(C(=O)O)c(=O)c2cc3c(cc21)OCO3` [(11)], the “effectiveness” value in test [1] is “highly effective”. For the same compound, the “Severity of Disease” value is reported as 12 in test [1], 4% in test [2] (100 ppm active ingredient) and 0% in test [2] (500 ppm active ingredient).

For `O=C(O)c1cn(CCF)c2cc3c(cc2c1=O)OCO3` [Compound (7)], the figures for the “Severity of Disease” value in test [1], in test [2] (100 ppm active ingredient) and in test [2] (500 ppm active ingredient) were 0, 0% and 0%, respectively.

In the case of `CCn1cc(C(=O)O)c(=O)c2ccc(C)nc21` [Nalidixic acid, nalidixic acid, reference compound], the “effect for preventing the occurrence” value in test [2] is “no effect”. Moreover, the “Severity of Disease” value in test [2] (500 ppm active ingredient) is listed as 100%.

Take `O=C(O)c1cn(CCCl)c2cc3c(cc2c1=O)OCO3` [Compound (9)]: the “Severity of Disease” value is recorded as 0 in test [1], 0% in test [2] (100 ppm active ingredient) and 0% in test [2] (500 ppm active ingredient).

As for `N=C(NCCCCCCNC(=N)NC(=N)Nc1ccc(Cl)cc1)NC(=N)Nc1ccc(Cl)cc1` [chlorhexidine, reference compound], the “effect for preventing the occurrence” value in test [2] was “no effect”. Besides, the “Severity of Disease” value in test [2] (500 ppm active ingredient) stood at 100%.

Regarding `COn1cc(C(=O)O)c(=O)c2c3sc(=O)n(C)c3ccc21` [(10)], the “Severity of Disease” value amounted to 0 in test [1], 12% in test [2] (100 ppm active ingredient) and 0% in test [2] (500 ppm active ingredient).
